# Source: article PMC4336329 (PLoS ONE, 2015)
# In all, about 310,000 compounds went through this assay and about 2,200 (0.71%) showed an effect of 50% or more. The effect is printed as a negative number. The list shows a part of the results.
# Biological target: human ether-à-go-go-related gene (hERG) potassium channel (human, UniProt Q12809)
# Assay: primary screen, population patch clamp on CHO cells stably expressing hERG
# human ether-à-go-go-related gene (hERG) potassium channel, sequence (Q12809 whole entry, looked up): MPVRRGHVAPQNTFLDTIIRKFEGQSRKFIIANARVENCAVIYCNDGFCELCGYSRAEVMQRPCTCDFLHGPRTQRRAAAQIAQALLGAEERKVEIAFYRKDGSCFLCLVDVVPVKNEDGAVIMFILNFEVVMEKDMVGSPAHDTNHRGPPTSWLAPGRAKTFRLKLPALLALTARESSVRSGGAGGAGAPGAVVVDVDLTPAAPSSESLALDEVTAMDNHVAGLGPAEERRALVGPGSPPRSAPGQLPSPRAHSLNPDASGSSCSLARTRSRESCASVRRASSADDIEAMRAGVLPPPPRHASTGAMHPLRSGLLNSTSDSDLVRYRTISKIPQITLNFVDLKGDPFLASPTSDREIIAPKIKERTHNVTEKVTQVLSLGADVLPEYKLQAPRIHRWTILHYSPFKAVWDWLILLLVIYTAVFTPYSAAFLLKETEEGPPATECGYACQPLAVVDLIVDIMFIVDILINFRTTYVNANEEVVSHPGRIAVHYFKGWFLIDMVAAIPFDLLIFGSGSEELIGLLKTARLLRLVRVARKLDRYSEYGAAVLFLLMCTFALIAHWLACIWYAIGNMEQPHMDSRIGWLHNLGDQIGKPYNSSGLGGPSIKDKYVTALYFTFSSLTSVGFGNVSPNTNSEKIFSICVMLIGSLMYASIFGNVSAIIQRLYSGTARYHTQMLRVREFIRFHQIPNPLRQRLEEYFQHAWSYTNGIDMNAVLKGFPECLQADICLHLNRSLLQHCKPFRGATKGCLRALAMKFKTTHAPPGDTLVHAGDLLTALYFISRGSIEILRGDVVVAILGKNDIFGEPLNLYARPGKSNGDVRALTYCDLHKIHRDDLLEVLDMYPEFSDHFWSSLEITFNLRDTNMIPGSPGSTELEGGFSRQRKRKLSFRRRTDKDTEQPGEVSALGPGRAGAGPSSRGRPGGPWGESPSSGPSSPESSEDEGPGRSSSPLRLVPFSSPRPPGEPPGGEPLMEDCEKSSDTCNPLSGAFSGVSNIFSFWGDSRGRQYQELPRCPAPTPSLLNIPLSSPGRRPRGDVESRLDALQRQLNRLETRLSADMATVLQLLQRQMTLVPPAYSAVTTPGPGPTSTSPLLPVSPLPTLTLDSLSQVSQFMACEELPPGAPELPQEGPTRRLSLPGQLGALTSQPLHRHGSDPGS
row,Compound,"hERG current change (%, negative = inhibition) at 1uM [%]"
1,O=C1OC/C(=C(/O)c2ccc(Cl)cc2)C1=O,15
2,O=C(NCc1ccco1)c1ccc(Cl)c(S(=O)(=O)N2CCCC2)c1,8.73
3,NC(=O)[C@H]1CC2(CC(c3cccc(NC(=O)COc4ccc(Cl)cc4)c3)=NO2)CN1C(=O)Cc1ccc([N+](=O)[O-])cc1 (some centres unmarked),8.63
4,CCc1c(C)c(C#N)c2nc3ccccc3n2c1NCc1ccco1,-2.58
5,COCCC(=O)N1CCC(Oc2ccc(C(=O)NCCC3=CCCCC3)cc2)CC1,-7.56
6,O=C(O)c1ccc(CSc2ncn[nH]2)cc1,10.1
7,O=C(Nc1cccc(S(=O)(=O)N2CCCCCC2)c1)C1CCN(C(=O)c2ccc(F)cc2)CC1,-32.2
8,O=C1Nc2cc(C(F)(F)F)ccc2N2CCCCC12 (centres unmarked),13.7
9,O=C(CCN1C(=O)C2CC=CCC2C1=O)Nc1cccc(S(=O)(=O)N2CCCCC2)c1 (centres unmarked),7.36
10,COc1cc2c(cc1/C=C1/NC(=O)N(c3ccccc3)C1=O)OCO2,5.77
11,CC(C)N1CC(C(=O)Nc2cc(Cl)cc(Cl)c2)CC1=O (centres unmarked),1.49
12,Cc1ccccc1NC(=O)c1cc2c(=O)n3cccc(C)c3nc2s1,10.3
13,CC(c1nccs1)N(C)C(=O)c1cn(Cc2cccc3ccccc23)nn1 (centres unmarked),14.3
14,CC1CN=C(Nc2ccc(F)cc2)S1 (centres unmarked),14.3
15,O=C(NCc1n[nH]c(=S)n1Cc1ccccc1)c1ccc(Cl)cc1Cl,5.8
16,O=C(CSc1nc2ccccc2[nH]1)Nc1ccc2c(c1)CCC2,14.9
17,COc1cc(SC)ccc1C(=O)Nc1ccc(Br)cn1,16.1
18,O=C(Nc1ccc(N2CCCCC2)c(Cl)c1)c1ncn[nH]1,4.55
19,O=C(NC1CCCN(Cc2ccc(Cl)cc2)C1)c1cccc(N2CCCC2=O)c1 (centres unmarked),7.03
20,CCn1c(CC(=O)Nc2ccc(Cl)cc2)nnc1SCC(=O)N1CCOCC1,13.3
21,O=C(NCc1ccco1)C(=O)c1cn(CC(=O)N2CCCCC2)c2ccccc12,9.58
22,COc1ccc(OC)c(-c2nnc(SCC(=O)N3CCCC3)o2)c1,12.7
23,O=C(O)/C(=C/c1ccco1)NC(=O)c1ccccc1,-0.782

row,Compound,"hERG current change (%, negative = inhibition) at 1uM [%]"
1,O=C(C[C@@H]1NS(=O)(=O)OC2CCCCC21)c1ccccc1 (some centres unmarked),3.72
2,Cc1ccc(S(=O)(=O)Cn2nnnc2C(C(C)C)N2CCc3ccccc3C2)cc1 (centres unmarked),6.72
3,N=C1C(c2ccccc2)=C(O)CN1c1cccc(O)c1,18.9
4,O=C(NCCCN1CCN(c2ccc(F)cc2)CC1)Nc1ccc([N+](=O)[O-])cc1,-49.5
5,C/C(=N\NC(=O)C1CC1)c1ccc(Cl)c(Cl)c1,8.15
6,CCNC(=S)NNc1ccccc1,0.139
7,Cc1cccc2cc(C#N)c(NCCNC(=O)NC3CCCCC3)nc12,6.49
8,COc1ccc(N2C(=O)CC(NCc3ccc(F)cc3)C2=O)cc1 (centres unmarked),12.6
9,COC(=O)c1cc(NC(=O)c2ccccc2F)cc(C(=O)OC)c1,12.9
10,CCCS(=O)(=O)N1CCN=C1SCc1cccc(F)c1,14.4
11,COc1ccccc1OCc1nnc(SCC(=O)c2cc(Cl)ccc2OC)o1,10.6
12,O=c1[nH]c(Nc2ccccn2)cc2ccccc12,7.63
13,O=C(Nc1ccc(Cl)c(Cl)c1)Nc1ccc(N2CCCC2)c(S(=O)(=O)Nc2ccccc2Cl)c1,14.9
14,Cc1nn(-c2ccccc2)c2c1C(=O)NC(=O)C(C)(C)C2,7.24
15,S=C1c2ccccc2CN1c1ccccc1,11.1
16,Cc1cccc(NC(=O)CSc2nc(=O)n(CCCN3CCOCC3)c3c2CCCC3)c1,3.53
17,COc1ccc(NC2CCCN(C(=O)CN3C(=O)c4ccccc4C3=O)C2)cc1OC (centres unmarked),14.8
18,CC(C(=O)NCC1CCCCC1)N1CCc2ccccc2C1 (centres unmarked),9.99
19,O=[N+]([O-])c1cccc(Cl)c1NCCNS(=O)(=O)c1ccc(Cl)cc1,-0.251
20,CCOC(=O)Cc1csc(NC(=O)NC2(C(F)(F)F)Oc3ccc(Cl)cc3O2)n1 (centres unmarked),13.9
21,C=CCCCCCCCCC(=O)NN,18.1
22,CCSc1nc(N2CCCCC2)c2c(c1C#N)CCCC2,3.61
23,COCCN(C(=O)CNC(=O)c1cccs1)C(C(=O)NC(C)(C)C)c1ccccc1 (centres unmarked),11.9

row,Compound,"hERG current change (%, negative = inhibition) at 1uM [%]"
1,O=C(c1cc(S(=O)(=O)N2CCOCC2)ccc1F)N1CCCc2ccccc21,5.46
2,CC(NS(=O)(=O)c1cc2c3c(c1)CCC(=O)N3CCC2)c1ccccc1 (centres unmarked),7.99
3,CC(C(=O)NC(C)(C)C)N(Cc1cccs1)C(=O)CCN1CCc2ccccc21 (centres unmarked),7.18
4,O=C(Nc1ccc(Cl)c(Cl)c1)C1CCN(C(=O)c2ccco2)CC1,4.86
5,CCOC(=O)CNS(=O)(=O)c1ccc2c3c(cccc13)C(=O)N2CC,20.2
6,COc1ccc(-n2cc(C#N)c(=O)n(Cc3ccc(F)cc3)c2=O)cc1,9.87
7,O=C(NCc1ccc(F)cc1)C1CCN(S(=O)(=O)c2cccc3nonc23)CC1,10.7
8,CCOC(=O)CCCN1CC(O)=C(c2nc(-c3ccc(Cl)cc3)cs2)C1=N,5.67
9,CC(C)C(=O)Nc1nnc(SCC(=O)NC2CCCC2)s1,8.03
10,COc1ccc(OS(=O)(=O)c2c(C)noc2C)cc1,6.64
11,O=C(Cc1ccccc1)N1CCN(C(=O)c2ccco2)CC1,9.62
12,COc1cccc(NC(=O)Nc2cc(C)on2)c1,22.1
13,Cc1ccc(Cl)cc1NC(=O)COC(=O)CN1C(=O)C2CCCCC2C1=O (centres unmarked),8.8
14,O=C(CSc1nnc(-c2cccs2)n1-c1ccccc1)N1CCOCC1,4.58
15,CCCn1c(N)c(N(CCOC)C(=O)c2cc3c(s2)CCC(CC)C3)c(=O)[nH]c1=O (centres unmarked),-4.41
16,CCn1c(NC(=O)/C=C/c2ccc(F)cc2)nc2ccccc21,15.2
17,COc1ccccc1C(=O)Nc1ccc(C)cc1C(=O)c1ccccc1,21.2
18,Cc1noc(NS(=O)(=O)c2ccc(N/C=C/C(=O)c3ccccc3)cc2)c1C,20.3
19,CCCCN(C(=O)CSc1nnc(Nc2ccc(C)c(C)c2)s1)c1c(N)n(Cc2ccccc2)c(=O)[nH]c1=O,11.2
20,C/C(=N\NC(=O)c1cccc(F)c1)c1ccc(NC(=O)Cc2ccccc2)cc1,12.8
21,O=C(COC(=O)C1CC(=O)N(Cc2ccccc2)C1)c1ccc(Br)cc1 (centres unmarked),3.7
22,Cc1ccccc1-n1nnnc1SCC(=O)NCC1(N2CCOCC2)CCCCC1,6.3
23,COc1ccc(NS(=O)(=O)c2cc(C)ccc2C)cc1,2.77

row,Compound,"hERG current change (%, negative = inhibition) at 1uM [%]"
1,CCOc1ccc(-n2c(C)cc(/C=N/N(C)C)c2C)cc1,13.4
2,COc1ccccc1CNS(=O)(=O)CCNC(=O)c1ccccc1,14.1
3,Cc1ccc(-c2ccc(C(=O)O)c(C)n2)cc1,7.26
4,Cc1ccc(C)c(CN2C(=O)COc3ccccc32)c1,13.7
5,Cc1ccc(C2OCC3(CO)COC(c4ccc(C)cc4)N23)cc1 (centres unmarked),9.27
6,CCOC(=O)c1[nH]c(=O)[nH]c1CSc1ccccn1,-2.24
7,Cc1ccccc1NC1=NC(=S)N(CC(N)=O)C12CCOC(C)(C)C2 (centres unmarked),0.596
8,COC(=O)c1nn(-c2ccc(OC)cc2)c(=O)cc1O,16.2
9,Cc1ccccc1COC(=O)CCCC1=NS(=O)(=O)c2ccccc2N1,8.86
10,CCOc1ccccc1N(CC(=O)NCc1ccccc1)C(=O)CCC(=O)Nc1cc(C)ccn1,6.21
11,Cc1cc(Cl)ccc1OCCCC(=O)Nc1ccc(S(=O)(=O)Nc2ncccn2)cc1,6.3
12,N#Cc1c(-c2ccccc2)nc(SCC(=O)Nc2ccc(OC(F)(F)Cl)cc2)[nH]c1=O,19.7
13,O=C(CNC(=O)OCc1ccccc1)Nc1ccc(Br)cc1C(=O)c1ccccc1Cl,3.8
14,Cn1c(SCC(=O)c2ccccc2)nc2cccnc21,14.3
15,CC1CC(C)CN(S(=O)(=O)N2CCCC(C(=O)NC(C)c3ccccc3)C2)C1 (centres unmarked),10.1
16,CC(=O)c1ccc(NS(=O)(=O)c2cccc(C(=O)Nc3ccccc3C(=O)O)c2)cc1,11.4
17,Cc1ccc(-n2nc(C)c3c(C)c(CCC(=O)NCc4ccco4)c(C)nc32)cc1,5.19
18,CC(=O)N/C(=C\c1ccccc1)C(=O)OCC(=O)N1CCCCCC1,7.65
19,COc1ccc(C(=O)Oc2cc(/C=N/NS(=O)(=O)c3ccc(C)cc3)ccc2OC)cc1,12.2
20,CC(C)C(NC(=O)c1ccc(F)cc1)C(=O)N1CCOCC1 (centres unmarked),12.3
